Measurements from article PMC4336329 (PLoS ONE, 2015).
In all, about 310,000 compounds went through this assay and about 14,000 (4.5%) showed an effect of 50% or more. The effect is printed as a negative number. The list shows a part of the results.

Each molecule was assayed against human ether-à-go-go-related gene (hERG) potassium channel (human, UniProt Q12809) (assay: primary screen, population patch clamp on CHO cells stably expressing hERG).
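Further: peak tail current of the secondary pulse compared with the same well before compound.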

Chain of human ether-à-go-go-related gene (hERG) potassium channel (Q12809 whole entry, looked up): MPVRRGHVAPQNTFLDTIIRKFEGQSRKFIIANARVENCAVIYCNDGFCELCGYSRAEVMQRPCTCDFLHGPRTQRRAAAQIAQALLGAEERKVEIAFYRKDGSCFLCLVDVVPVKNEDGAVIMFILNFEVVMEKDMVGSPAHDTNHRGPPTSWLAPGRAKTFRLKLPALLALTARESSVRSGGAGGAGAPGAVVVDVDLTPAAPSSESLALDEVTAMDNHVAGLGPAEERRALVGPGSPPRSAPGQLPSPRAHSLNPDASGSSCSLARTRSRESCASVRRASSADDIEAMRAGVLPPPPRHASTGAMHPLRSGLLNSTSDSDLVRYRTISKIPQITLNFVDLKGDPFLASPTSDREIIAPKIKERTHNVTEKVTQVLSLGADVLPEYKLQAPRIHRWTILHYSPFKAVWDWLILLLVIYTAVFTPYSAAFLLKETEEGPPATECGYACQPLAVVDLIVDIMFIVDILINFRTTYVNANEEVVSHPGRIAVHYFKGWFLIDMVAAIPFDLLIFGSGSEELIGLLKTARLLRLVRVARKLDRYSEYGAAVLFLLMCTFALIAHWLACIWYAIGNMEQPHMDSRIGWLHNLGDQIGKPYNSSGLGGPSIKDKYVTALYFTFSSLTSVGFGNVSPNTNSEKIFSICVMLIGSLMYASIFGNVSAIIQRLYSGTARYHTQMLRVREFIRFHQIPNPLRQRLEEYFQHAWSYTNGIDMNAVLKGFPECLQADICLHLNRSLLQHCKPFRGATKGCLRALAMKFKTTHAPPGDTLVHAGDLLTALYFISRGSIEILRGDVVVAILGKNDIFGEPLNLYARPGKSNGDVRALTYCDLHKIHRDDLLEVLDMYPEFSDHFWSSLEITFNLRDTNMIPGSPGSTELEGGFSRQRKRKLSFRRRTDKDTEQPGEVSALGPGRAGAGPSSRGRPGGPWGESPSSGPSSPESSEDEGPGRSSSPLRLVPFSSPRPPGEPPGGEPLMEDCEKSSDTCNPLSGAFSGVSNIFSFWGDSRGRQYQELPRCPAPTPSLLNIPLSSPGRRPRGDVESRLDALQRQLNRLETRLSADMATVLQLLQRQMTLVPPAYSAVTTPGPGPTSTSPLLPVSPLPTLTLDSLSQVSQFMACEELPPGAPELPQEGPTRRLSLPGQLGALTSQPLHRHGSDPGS

Row | SMILES | hERG current change (%, negative = inhibition) at 10uM [%]
1 | Cc1cc(NC(=O)CSc2nnc3ccc(-c4ccc(F)cc4)nn23)no1 | 14.4
2 | CCc1cccc(C)c1NC(=S)N(CCOC)C(C)c1ccco1 (stereo not drawn) | -9.38
3 | CCCNC(=S)NC1CCCC1 | -15.1
4 | O=C(NCc1ccccc1)C(c1ccc(F)cc1)N(C(=O)c1csnn1)c1ccccc1 (stereo not drawn) | 17
5 | CC1CN(C(=O)CCNC(=O)c2ccc(Br)cc2)CC(C)O1 (stereo not drawn) | -4.12
6 | O=[N+]([O-])c1ccc2nc(-c3ccccc3)n(OCc3ccc(Cl)cc3)c2c1 | 3.68
7 | CC1(c2ccccc2)NC(=O)N(NC(=O)CSc2n[nH]c(N)n2)C1=O (stereo not drawn) | 25.3
8 | COc1ccc(Nc2nc3cc(C)ccc3cc2C#N)c(OC)c1 | 8.19
9 | Clc1cc2c(nn1)Nc1ccccc1S2 | -0.181
10 | CC1=CC(C)(C)N(C(=O)CN2C(=O)c3ccccc3C2=O)c2ccc(C)cc21 | -2.01
11 | Nc1nc2n(n1)C(c1ccco1)CC(c1ccc(Cl)c(Cl)c1)N2 (stereo not drawn) | -31.4
12 | COc1ccc(CC(=O)Nc2ccc(S(=O)(=O)N(C)C3CCN(C)CC3)cc2)cc1 | 0.167
13 | O=C(NC1CCS(=O)(=O)C1)/C(=C\c1ccccc1)NC(=O)c1ccccc1 (stereo not drawn) | -11
14 | CCCCN(Cc1ccco1)S(=O)(=O)c1csc(C(N)=O)c1 | 2.8
15 | COc1ccc(C(CC(=O)O)NC(C)=O)cc1OC (stereo not drawn) | 10.4
16 | COc1cc(/C=C2/S/C(=N/S(=O)(=O)Cc3ccccc3)NC2=O)c([N+](=O)[O-])cc1OC | 8.72
17 | CCOCCCNc1nc(C)nc2c1nnn2Cc1c(F)cccc1Cl | -9.65
18 | Cn1cccc1C(=O)NC(=O)COC(=O)c1cc([N+](=O)[O-])ccc1Cl | 12.4
19 | COC(=O)c1ccc2c(=O)n(Cc3ccc(C(=O)NCCCN4CCOCC4)cc3)c(=S)[nH]c2c1 | 14.7
20 | Cc1cccc(OCC(=O)N2CCN(Cc3ccc([N+](=O)[O-])cc3)CC2)c1.O=C(O)C(=O)O | -73
21 | COC(=O)c1cc(CN2C(=O)c3ccccc3C2=O)c(O)c([N+](=O)[O-])c1 | 18.4
22 | Cc1ccc(S(=O)(=O)N2CCOCC2)s1 | 13.3

Row | SMILES | hERG current change (%, negative = inhibition) at 10uM [%]
23 | CN1CCN(C(=O)/C=C/c2ccccc2)CC1 | 4.5
24 | CCc1ccccc1NC(=O)c1ccc2snnc2c1 | -4.77
25 | COc1cc(/C=C/C(=O)N2CC(C)OC(C)C2)cc(OC)c1OC (stereo not drawn) | 18.6
26 | CN1C(=O)C(CC(=O)NC2CCCCC2)N(C)C1=O (stereo not drawn) | 17.3
27 | O=C1OC(N2C(=O)CC[C@H]2C(=O)Nc2ccc(F)c(F)c2)c2ccccc21 (stereo partly drawn) | 5.46
28 | O=C(Nc1cccc(S(=O)(=O)NC2=NCCC2)c1)c1cnc(Cl)c(Cl)c1 | 0.368
29 | CC(NC(=O)C(=O)NN=C1CCCC1)c1ccccc1 (stereo not drawn) | 16.5
30 | O=S(=O)(c1cccs1)N1CCN(c2ccccc2Cl)CC1 | 9.51
31 | COc1ccc(NC(=O)CSc2nc3c(c(-c4cccs4)c2C#N)CN(C)CC3)cc1OC | 1.65
32 | COc1cc(C=C(c2nc3ccccc3s2)c2nc3ccccc3s2)ccc1O | 16.2
33 | CC(=O)c1cnc2c(-c3ccccc3)c(C(F)(F)F)nn2c1C | 10
34 | Cc1cc(=O)oc2c3c(cc(OCC(=O)N4CCC[C@H]4C(=O)O)c12)OC(C)(C)CC3 | 4.73
35 | CCN(CC)S(=O)(=O)c1cc(C(=O)Nc2nncs2)c(Cl)cc1Cl | -21
36 | O=C(COC(=O)Cc1ccc(S(=O)(=O)N2CCOCC2)s1)NCc1ccccc1 | -18.6
37 | COc1ccccc1NC(=O)c1ccc(NC2=NC3CS(=O)(=O)CC3S2)cc1 (stereo not drawn) | 24.8
38 | COc1ccc(-c2nnn(CC(=O)N(CCCN3CCOCC3)C(C(=O)NC3CCCC3)c3ccco3)n2)cc1 (stereo not drawn) | -40.3
39 | O=C(NNC(=O)c1cc2ccccc2cc1O)Nc1ccccc1F | 14.4
40 | O=C1CN(C(=O)COC(=O)c2ccccc2O)c2ccccc2N1 | -2.67
41 | CCOc1ccc(S(=O)(=O)NCc2ccncc2)cc1NC(=O)c1ccccc1F | 21.1
42 | Cc1ccc(OCCCC(=O)Nc2ccc3c(c2)OCO3)cc1 | 5.14
43 | COc1ccc(Nc2nc(N)nc(CN3CCC(Cc4ccccc4)CC3)n2)cc1 | -79
44 | COc1ccc(N2CCN(C(=O)c3ccc(CS(=O)(=O)c4ccccc4C)o3)CC2)cc1 | -21.5

Row | SMILES | hERG current change (%, negative = inhibition) at 10uM [%]
45 | O=C(COC(=O)CN=C1NS(=O)(=O)c2ccccc21)Nc1ccccc1OC(F)F | 3.22
46 | Cc1cc(C)nc(SCc2nnc(SCC(N)=O)n2Cc2ccco2)n1 | -7.19
47 | COc1ccc(-n2c(SC3CCOC3=O)nc3ccccc3c2=O)cc1Cl (stereo not drawn) | -18.7
48 | Cc1ccc(S(=O)(=O)NN2C(=O)/C(=C/c3ccc(F)cc3)SC2=S)cc1 | 5.44
49 | O=C(CN1CCN(Cc2ccccc2)CC1)N/N=C/c1ccco1 | -5.43
50 | CCN(CC)C(=O)CCCSc1nnc(Nc2ccccc2F)s1 | -23.1
51 | CCOC(=O)c1cc(CC)sc1NC(=O)c1cc(OCC)c(OCC)c(OCC)c1 | 8.61
52 | COc1ccc(S(=O)(=O)NCC2CCC(C(=O)NCCC(C)C)CC2)cc1 (stereo not drawn) | 3.43
53 | O=[N+]([O-])c1ccc(-n2cc(-c3ccccc3)nn2)cc1 | -29.4
54 | Cc1ccc(C2=NOC(C)(c3nnc(Cc4ccccc4)o3)C2)cc1 (stereo not drawn) | -15.2
55 | COc1ccc(-c2cc(C(=O)NCCc3ccccc3)no2)cc1OC | 18.5
56 | COc1c(C)c2c(c(O)c1C/C=C(\C)CCC(=O)O)C(=O)OC2 | 14.7
57 | CC(C)N1C(=O)C2C(C(=O)NC3CCCCC3)C3C=CC2(O3)C1C(=O)NC1CCCCC1 (stereo not drawn) | 1.37
58 | CC(C)c1cc(CN2CCN(Cc3ccc(F)c(F)c3)C(CCO)C2)[nH]n1 (stereo not drawn) | -52.4
59 | CCCCCCC(=O)N=Nc1c(O)[nH]c2ccc([N+](=O)[O-])cc12 | 7.11
60 | OC(COC(c1ccccc1)c1ccccc1)CN1CCCCC1 (stereo not drawn) | -62.9
61 | O=C(COc1ccc(S(=O)(=O)N2CCOCC2)cc1)N1CCN(Cc2ccc3c(c2)OCO3)CC1 | -10
62 | Clc1ccc(C2Nc3cccc4cccc(c34)N2)cc1Cl | 24.8
63 | COc1ccc2[nH]cc(CCN=C3SCC(=O)N3C)c2c1 | 13.9
64 | O=C(O)C1C2C=CC(C2)C1C(=O)NCc1ccc(Cl)c(Cl)c1 (stereo not drawn) | 21.6
65 | FC(F)(F)c1nnc(-c2ccccc2)nc1N1CCCC1 | 17.2
66 | C=CCn1c(=NC(=O)C2COc3ccccc3O2)sc2cccc(OC)c21 (stereo not drawn) | 21.2

Row | SMILES | hERG current change (%, negative = inhibition) at 10uM [%]
67 | COc1cc(CNC(C)c2ccccc2)c(Br)cc1OCC(N)=O (stereo not drawn) | -17.2
68 | COc1cc(/C=C2\CCC(C3CCCC3)C2=O)cc(OC)c1OC (stereo not drawn) | 9.98
69 | O=C(NC(=S)N1CCN(c2ccc([N+](=O)[O-])cc2)CC1)c1ccccc1F | -25.8
70 | COc1ccc(-c2cn3c(C)c(C(=O)Nc4cc(NC(C)=O)ccc4OC)sc3n2)cc1 | 4.22
71 | COc1ccc(CCNC(=O)C2CC(c3ccccc3F)=NO2)cc1 (stereo not drawn) | -8.86
72 | O=C(OCC(=O)N1CCN(C(=O)c2ccco2)CC1)c1cncc(Br)c1 | 0.568
73 | CCOC(=O)C1=C(CN2c3ccccc3CC2C)NC(=O)NC1c1ccccc1 (stereo not drawn) | -12.4
74 | O=c1[nH]c(Nc2ccc3c(c2)OCCO3)nnc1Cc1ccccc1 | 12
75 | Clc1ccc(-c2noc(CN3CCCC3)n2)cc1 | -15.1
76 | CC(=O)Nc1nc(N(C)C)nc(N(C)C)n1 | 62.4
77 | CCOC(=O)C1CCN(c2c(NC3CCCc4ccccc43)c(=O)c2=O)CC1 (stereo not drawn) | -33.5
78 | COc1ccccc1NC(=O)c1c(NC(=O)c2ccco2)sc2c1CCC2 | 1.12
79 | CN(C)c1ccc(N=Nc2cccc(F)c2)cc1 | 0.778
80 | CN(NC1OC(=O)c2ccccc21)c1ncc(Cl)cc1C(F)(F)F (stereo not drawn) | 23.3
81 | Cc1cc(Br)ccc1SCC(=O)N1CCN(S(=O)(=O)c2ccccc2)CC1 | -5.23
82 | O=C(COC(=O)c1cc(=O)c2ccccc2o1)Nc1ccc2ccccc2c1 | 17.6
83 | CC(C)(C)S(=O)(=O)c1cnc(N2CCOCC2)nc1N | 3.68
84 | c1ccc2cc3[nH]c(CN4CCCCC4)nc3cc2c1 | -36.3
85 | COc1ccc(-c2nc(CN3CCN(c4ncnc5ccccc45)CC3)c(C)o2)c(OC)c1 | -66.8
86 | COc1cccc(NC(=O)C(c2ccccc2)N2CCN(c3ccccn3)CC2)c1 (stereo not drawn) | 16.6
87 | C=CCn1c(SCC(=O)Nc2ccccc2C)nc2sc(C)c(C)c2c1=O | 6.01
